Assay results: publication PMC9911399, “Two distinct binding modes provide the RNA-binding protein RbFox with extraordinary sequence specificity”
Substitutions are numbered along the chain they refer to; changes in the protein carry UniProt numbers. The list shows a part of the results.

T1: RBFOX1 RRM (Homo sapiens, UniProt Q9NWB1 109-208)
T1 sequence: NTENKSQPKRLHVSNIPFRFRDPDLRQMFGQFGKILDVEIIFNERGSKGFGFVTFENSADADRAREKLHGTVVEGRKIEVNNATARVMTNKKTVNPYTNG

B1: CUAUCGC (DNA:RNA)
RNA: GGGAGACCGGAAUUCAGAUUGUCCCUAUCGCUUAAAUCCCGUCGUAGCCACCA
DNA 1: CAATCTGAATTCCGGTCTCCC
DNA 2: TGGTGGCTACGACGGGATT
B2: CGACAGU (DNA:RNA)
RNA: B1 RNA with U26G, U28C, C29A, C31U
DNA 1: CAATCTGAATTCCGGTCTCCC
DNA 2: TGGTGGCTACGACGGGATT
B3: GCGAGUA (DNA:RNA)
RNA: GGGAGACCGGAAUUCAGAUUGUCCGCGAGUAUUAAAUCCCGUCGUAGCCACCA
DNA 1: CAATCTGAATTCCGGTCTCCC
DNA 2: TGGTGGCTACGACGGGATT
B4: GACUUUC (DNA:RNA)
RNA: B1 RNA with C25G, U26A, A27C, C29U, G30U
DNA 1: CAATCTGAATTCCGGTCTCCC
DNA 2: TGGTGGCTACGACGGGATT
B5: CUCCCAG (DNA:RNA)
RNA: B1 RNA with A27C, U28C, G30A, C31G
DNA 1: CAATCTGAATTCCGGTCTCCC
DNA 2: TGGTGGCTACGACGGGATT
B6: UGGCAGG (DNA:RNA)
RNA: B1 RNA with C25U, U26G, A27G, U28C, C29A, C31G
DNA 1: CAATCTGAATTCCGGTCTCCC
DNA 2: TGGTGGCTACGACGGGATT
B7: GAGCAGU (DNA:RNA)
RNA: B3 RNA with C26A, A28C, G29A, U30G, A31U
DNA 1: CAATCTGAATTCCGGTCTCCC
DNA 2: TGGTGGCTACGACGGGATT
B8: UUCCUCG (DNA:RNA)
RNA: B1 RNA with C25U, A27C, U28C, C29U, G30C, C31G
DNA 1: CAATCTGAATTCCGGTCTCCC
DNA 2: TGGTGGCTACGACGGGATT
B9: UGGUAUG (DNA:RNA)
RNA: B3 RNA with G25U, C26G, A28U, G29A, A31G
DNA 1: CAATCTGAATTCCGGTCTCCC
DNA 2: TGGTGGCTACGACGGGATT
B10: GUGUAGG (DNA:RNA)
RNA: B1 RNA with C25G, A27G, C29A, C31G
DNA 1: CAATCTGAATTCCGGTCTCCC
DNA 2: TGGTGGCTACGACGGGATT
B11: AUGAUAG (DNA:RNA)
RNA: B3 RNA with G25A, C26U, G29U, U30A, A31G
DNA 1: CAATCTGAATTCCGGTCTCCC
DNA 2: TGGTGGCTACGACGGGATT
B12: UAGAUCG (DNA:RNA)
RNA: B3 RNA with G25U, C26A, G29U, U30C, A31G
DNA 1: CAATCTGAATTCCGGTCTCCC
DNA 2: TGGTGGCTACGACGGGATT
B13: GUGUCCC (DNA:RNA)
RNA: B1 RNA with C25G, A27G, G30C
DNA 1: CAATCTGAATTCCGGTCTCCC
DNA 2: TGGTGGCTACGACGGGATT
B14: UGCUGAC (DNA:RNA)
RNA: B1 RNA with C25U, U26G, A27C, C29G, G30A
DNA 1: CAATCTGAATTCCGGTCTCCC
DNA 2: TGGTGGCTACGACGGGATT
B15: UCGCAAC (DNA:RNA)
RNA: B3 RNA with G25U, A28C, G29A, U30A, A31C
DNA 1: CAATCTGAATTCCGGTCTCCC
DNA 2: TGGTGGCTACGACGGGATT
B16: CCGUCGU (DNA:RNA)
RNA: B1 RNA with U26C, A27G, C31U
DNA 1: CAATCTGAATTCCGGTCTCCC
DNA 2: TGGTGGCTACGACGGGATT
B17: UUCGUUG (DNA:RNA)
RNA: B1 RNA with C25U, A27C, U28G, C29U, G30U, C31G
DNA 1: CAATCTGAATTCCGGTCTCCC
DNA 2: TGGTGGCTACGACGGGATT
B18: CUACAGG (DNA:RNA)
RNA: B1 RNA with U28C, C29A, C31G
DNA 1: CAATCTGAATTCCGGTCTCCC
DNA 2: TGGTGGCTACGACGGGATT
B19: CACUGUC (DNA:RNA)
RNA: B1 RNA with U26A, A27C, C29G, G30U
DNA 1: CAATCTGAATTCCGGTCTCCC
DNA 2: TGGTGGCTACGACGGGATT
B20: ACCGAUU (DNA:RNA)
RNA: B3 RNA with G25A, G27C, A28G, G29A, A31U
DNA 1: CAATCTGAATTCCGGTCTCCC
DNA 2: TGGTGGCTACGACGGGATT
B21: GAACGUA (DNA:RNA)
RNA: B3 RNA with C26A, G27A, A28C
DNA 1: CAATCTGAATTCCGGTCTCCC
DNA 2: TGGTGGCTACGACGGGATT
B22: CAAGGGA (DNA:RNA)
RNA: B1 RNA with U26A, U28G, C29G, C31A
DNA 1: CAATCTGAATTCCGGTCTCCC
DNA 2: TGGTGGCTACGACGGGATT
B23: GAGCAGA (DNA:RNA)
RNA: B3 RNA with C26A, A28C, G29A, U30G
DNA 1: CAATCTGAATTCCGGTCTCCC
DNA 2: TGGTGGCTACGACGGGATT
B24: GCGCAAA (DNA:RNA)
RNA: B3 RNA with A28C, G29A, U30A
DNA 1: CAATCTGAATTCCGGTCTCCC
DNA 2: TGGTGGCTACGACGGGATT
B25: AAGGGCC (DNA:RNA)
RNA: B3 RNA with G25A, C26A, A28G, U30C, A31C
DNA 1: CAATCTGAATTCCGGTCTCCC
DNA 2: TGGTGGCTACGACGGGATT
B26: ACUGGUC (DNA:RNA)
RNA: B3 RNA with G25A, G27U, A28G, A31C
DNA 1: CAATCTGAATTCCGGTCTCCC
DNA 2: TGGTGGCTACGACGGGATT
B27: AGAAUAC (DNA:RNA)
RNA: B1 RNA with C25A, U26G, U28A, C29U, G30A
DNA 1: CAATCTGAATTCCGGTCTCCC
DNA 2: TGGTGGCTACGACGGGATT
B28: UGGGCAC (DNA:RNA)
RNA: B1 RNA with C25U, U26G, A27G, U28G, G30A
DNA 1: CAATCTGAATTCCGGTCTCCC
DNA 2: TGGTGGCTACGACGGGATT
B29: UGAGCAC (DNA:RNA)
RNA: B1 RNA with C25U, U26G, U28G, G30A
DNA 1: CAATCTGAATTCCGGTCTCCC
DNA 2: TGGTGGCTACGACGGGATT
B30: CUGAGAA (DNA:RNA)
RNA: B3 RNA with G25C, C26U, U30A
DNA 1: CAATCTGAATTCCGGTCTCCC
DNA 2: TGGTGGCTACGACGGGATT
B31: CGCCGCU (DNA:RNA)
RNA: B1 RNA with U26G, A27C, U28C, C29G, G30C, C31U
DNA 1: CAATCTGAATTCCGGTCTCCC
DNA 2: TGGTGGCTACGACGGGATT

target: T1, RBFOX1 RRM; assay: EMSA; HiTS-Eq, 1 nM pool, 10 min; buffer printed only for the single-RNA assays: 10 mM Tris pH 7.5, 150 mM NaCl, 3.4 mM EDTA, 0.001% NP-40, 30 C; details: tags: His6 N-terminal (pET28a); label: 5' 32P
Procedure, shortened: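 Purified wild-type or mutant RbFox RRM at increasing concentrations was equilibrated with 1 nM of 5′-radiolabelled RNA carrying 7 randomized nucleotides for 10 min in 50 µL. Unbound RNA was separated by 8% native PAGE and sequenced. Relative association constants came from read-count changes of each RNA species compared with the control reaction, normalised to the cognate motif.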

Q: For B1, which binding signal is on record?
A: 0.00743 KA relative to UGCAUGU

Q: For B2, which binding signal is on record?
A: 0.00911 KA relative to UGCAUGU

Q: For B3, which binding signal is on record?
A: 0.0128 KA relative to UGCAUGU

Q: Which binding signal does the source give for B4 here?
A: 0.0111 KA relative to UGCAUGU

Q: B5 was tested. Which binding signal did it give?
A: 0.00251 KA relative to UGCAUGU

Q: B6 was tested. Which binding signal did it give?
A: 0.0211 KA relative to UGCAUGU

Q: With B7 as the binder, how does the binding signal read?
A: 0.0139 KA relative to UGCAUGU

Q: Which binding signal does the source give for B8 here?
A: 0.0136 KA relative to UGCAUGU

Q: For B9, which binding signal is on record?
A: 0.0243 KA relative to UGCAUGU

Q: Which binding signal does the source give for B10 here?
A: 0.00962 KA relative to UGCAUGU

Q: Which binding signal does the source give for B11 here?
A: 0.0111 KA relative to UGCAUGU

Q: Which binding signal does the source give for B12 here?
A: 0.0168 KA relative to UGCAUGU

Q: For B13, which binding signal is on record?
A: 0.0147 KA relative to UGCAUGU

Q: How did the binding signal turn out when B14 was run?
A: 0.0249 KA relative to UGCAUGU

Q: B15 was tested. Which binding signal did it give?
A: 0.0108 KA relative to UGCAUGU

Q: How did the binding signal turn out when B16 was run?
A: 0.00963 KA relative to UGCAUGU

Q: B17 was tested. Which binding signal did it give?
A: 0.0218 KA relative to UGCAUGU

Q: How did the binding signal turn out when B18 was run?
A: 0.0105 KA relative to UGCAUGU

Q: Which binding signal does the source give for B19 here?
A: 0.00979 KA relative to UGCAUGU

Q: B20 was tested. Which binding signal did it give?
A: 0.00358 KA relative to UGCAUGU

Q: How did the binding signal turn out when B21 was run?
A: 0.0109 KA relative to UGCAUGU

Q: B22 was tested. Which binding signal did it give?
A: 0.00367 KA relative to UGCAUGU

Q: For B23, which binding signal is on record?
A: 0.0147 KA relative to UGCAUGU

Q: B24 was tested. Which binding signal did it give?
A: 0.007 KA relative to UGCAUGU

Q: How did the binding signal turn out when B25 was run?
A: 0.012 KA relative to UGCAUGU

Q: B26 was tested. Which binding signal did it give?
A: 0.016 KA relative to UGCAUGU

Q: B27 was tested. Which binding signal did it give?
A: 0.000709 KA relative to UGCAUGU

Q: With B28 as the binder, how does the binding signal read?
A: 0.0337 KA relative to UGCAUGU

Q: With B29 as the binder, how does the binding signal read?
A: 0.0128 KA relative to UGCAUGU

Q: How did the binding signal turn out when B30 was run?
A: 0.016 KA relative to UGCAUGU

Q: Which binding signal does the source give for B31 here?
A: 0.00885 KA relative to UGCAUGU
